In PMC4336329 (PLoS ONE, 2015):
Out of some 310,000 compounds screened, about 14,000 (4.5%) showed an effect of 50% or more. The effect is printed as a negative number. The list shows a part of the results.

Target: human ether-à-go-go-related gene (hERG) potassium channel (human, UniProt Q12809)
Assay: primary screen, population patch clamp on CHO cells stably expressing hERG
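Note: peak tail current of the secondary pulse compared with the same well before compound.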

Sequence of human ether-à-go-go-related gene (hERG) potassium channel (Q12809 whole entry, looked up): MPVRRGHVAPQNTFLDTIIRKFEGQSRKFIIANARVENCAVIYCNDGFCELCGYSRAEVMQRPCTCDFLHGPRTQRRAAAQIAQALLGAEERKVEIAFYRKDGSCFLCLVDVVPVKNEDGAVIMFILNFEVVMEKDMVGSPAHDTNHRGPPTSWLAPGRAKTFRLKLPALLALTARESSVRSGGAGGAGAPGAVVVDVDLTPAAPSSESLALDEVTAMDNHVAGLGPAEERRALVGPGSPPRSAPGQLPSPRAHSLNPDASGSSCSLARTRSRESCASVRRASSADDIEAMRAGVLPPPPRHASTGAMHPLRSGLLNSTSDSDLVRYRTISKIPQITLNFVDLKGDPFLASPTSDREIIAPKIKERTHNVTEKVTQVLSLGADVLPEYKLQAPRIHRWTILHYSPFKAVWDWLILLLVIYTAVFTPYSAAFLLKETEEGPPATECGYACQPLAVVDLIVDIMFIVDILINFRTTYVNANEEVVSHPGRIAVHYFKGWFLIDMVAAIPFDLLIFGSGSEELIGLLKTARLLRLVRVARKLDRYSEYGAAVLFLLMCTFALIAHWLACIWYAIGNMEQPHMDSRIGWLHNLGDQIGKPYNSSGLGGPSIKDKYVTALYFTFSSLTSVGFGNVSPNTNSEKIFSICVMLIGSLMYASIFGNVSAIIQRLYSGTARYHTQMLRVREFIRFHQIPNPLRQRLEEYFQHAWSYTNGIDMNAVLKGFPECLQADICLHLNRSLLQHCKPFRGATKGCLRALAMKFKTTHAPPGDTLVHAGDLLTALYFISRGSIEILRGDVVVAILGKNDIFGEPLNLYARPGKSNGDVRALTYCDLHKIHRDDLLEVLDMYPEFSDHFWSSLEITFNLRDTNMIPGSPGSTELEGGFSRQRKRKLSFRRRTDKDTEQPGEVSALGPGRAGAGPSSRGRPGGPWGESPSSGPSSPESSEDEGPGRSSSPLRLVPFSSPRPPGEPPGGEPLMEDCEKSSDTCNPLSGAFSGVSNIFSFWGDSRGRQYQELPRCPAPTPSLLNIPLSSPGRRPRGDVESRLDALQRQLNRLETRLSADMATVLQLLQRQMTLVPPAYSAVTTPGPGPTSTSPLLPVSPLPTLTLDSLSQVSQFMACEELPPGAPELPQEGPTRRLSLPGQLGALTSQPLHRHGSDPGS

Row | Compound | hERG current change (%, negative = inhibition) at 10uM
1 | Cc1ccc(C(=O)NCCCNC(=O)COc2ccc(Cl)c(C)c2)cn1 | -15.8%
2 | O=C(c1ccc(F)cc1)C1CCN(C(=S)NCC2CCCO2)CC1 (stereo not drawn) | -26.2%
3 | COc1ccc(-c2nn3c(-c4ccc(F)cc4)nnc3s2)cc1 | 6.12%
4 | COc1ccc(NS(=O)(=O)c2cc3c(cc2C)N(C(C)=O)CCO3)cc1 | -4.83%
5 | CC(=O)OC12CC3CC(C1)C(=NO)C(C3)C2 | 5.46%
6 | CC(C)c1ccc(C2/C(=C(\O)c3ccc4c(c3)OCCO4)C(=O)C(=O)N2CCN2CCOCC2)cc1 (stereo not drawn) | 14.9%
7 | Cc1cc(C)c(C(N)=O)c(NCCc2ccccc2)n1 | 12.2%
8 | Cc1ccccc1OCc1nnc(SCCN2CCCC2)n1-c1ccccc1.Cl | -65.3%
9 | CCC(C)(C)n1nnnc1C(c1ccccc1OC)N1CCN(C(=O)c2ccco2)CC1 (stereo not drawn) | -32.6%
10 | CCCc1nnc(NC(=O)c2cn(CC)c3cc(N4CCN(C)CC4)c(F)cc3c2=O)s1 | 13%
11 | Cc1cc(=O)oc2cc(OCC(=O)N3CCN(Cc4ccc5c(c4)OCO5)CC3)ccc12 | -42.9%
12 | CCN(CC)S(=O)(=O)c1cc(NC(=O)Cn2cnc3ccccc3c2=O)ccc1C | -54.8%
13 | CCNc1nc(NCC)nc(N(C)N)n1 | 2.72%
14 | COc1ccc(NC(=O)c2ccc3c(SCC(=O)O)c4c(nc3c2)CCCC4)cc1Cl | 12%
15 | Cc1c(C(=O)Nc2cc(S(=O)(=O)N3CCOCC3)ccc2N2CCOCC2)oc2ccccc12 | 10.4%
16 | O=C(Nc1nc2ccccc2[nH]1)C1CCC1 | 14.6%
17 | COc1ccc(-n2nc3c(N)n[nH]c3cc2=O)cc1 | -2.4%
18 | NC(=O)CC(NC(=O)c1ccccc1)c1ccc(N2CCN(c3ccccc3)CC2)c([N+](=O)[O-])c1 (stereo not drawn) | 1.33%
19 | CC(=O)Nc1ccc(S(=O)(=O)Nc2nc3ccccc3s2)cc1 | 4.98%
20 | COc1cccc(CN(C)C(=O)CC2C(=O)NCCN2C2Cc3ccccc3C2)c1 (stereo not drawn) | -11.1%
21 | O=C1[C@@H]2C(Cc3ccc(O)cc3)NC3(C(=O)Nc4ccc(F)cc43)[C@@H]2C(=O)N1c1ccccc1 (stereo partly drawn) | 1.61%
22 | O=C(NCc1ccccc1)c1ccc(CNc2c(N3CCCC3)c(=O)c2=O)cc1 | 0.027%
23 | O=C(Cn1nc(C(F)(F)F)c2c1CCCCC2)N1CCOCC1 | 14.6%

Row | Compound | hERG current change (%, negative = inhibition) at 10uM
24 | CC(=O)c1cccc(NC(=O)C(OC(=O)c2cccc(S(=O)(=O)N(C)c3ccccc3)c2)c2ccccc2)c1 (stereo not drawn) | 12.4%
25 | Cn1c(O)c(N=NC(=O)CNC(=O)c2ccccc2)c2cc(Br)ccc21 | -18.8%
26 | Cn1c(/C(C#N)=C(\O)c2ccccc2Cl)nc2ccccc21 | 16.4%
27 | COc1ccc(-c2nc(SCC(=O)Nc3cc(C)on3)n[nH]2)cc1 | 6.83%
28 | CCN1C(=O)/C(=C\N(C)C)c2ccccc21 | 18.5%
29 | CN(Cc1nc2ccccc2c(=O)[nH]1)C(=O)c1ccccc1OCc1ccc(Cl)cc1 | -58.2%
30 | CCCNCC1COc2ccccc2O1.Cl (stereo not drawn) | 23.1%
31 | C[C@@]12CCC3[C@@](CCC4[C@@]3(C)CCC[C@@]4(C)C(=O)NC3CCCCC3)(CC1=O)C2 (stereo partly drawn) | -4.1%
32 | O=S(=O)(Cc1c(F)cccc1Cl)c1ncn[nH]1 | 23.1%
33 | COc1ccc(NCc2ccc3c(c2)OCO3)cc1Cl | -4.31%
34 | CCN(CC)c1ccc2cc(C(N)=O)c(=O)oc2c1 | 9.31%
35 | Cc1cc(C)c(C(=O)N2CCCC(N3CCN(c4ccc(F)cc4)CC3)C2)o1 (stereo not drawn) | -73.6%
36 | CN(CC(=O)N1CCN(c2ccccc2)CC1)S(=O)(=O)c1cccs1 | -24.8%
37 | c1ccc(NC2=NCCS2)cc1 | 14.2%
38 | CCCN=C(Nc1ccc(Cl)cc1)c1cccnc1 | -11.5%
39 | O=C(NC1CCCCC1)C(c1cccs1)N(CCCN1CCOCC1)C(=O)c1ccc(-c2ccccc2)[nH]1 (stereo not drawn) | -66.5%
40 | Nc1ccc(Sc2nnnn2-c2ccccc2)c(Cl)c1 | 0.677%
41 | COc1ccc(/C=N/NC(=O)c2cccc(NC(C)=O)c2)c(C(=O)O)c1OC | 10.2%
42 | COc1nc(N2CCCC2)nc(-n2nnc(C(C)=O)c2C)n1 | 0.253%
43 | c1cc2cn[nH]c2cc1NC1CCCCCC1 | -11.6%
44 | COc1ccc(C(CNC(=O)CCNC(=O)c2ccc(Br)cc2)N2CCOCC2)cc1 (stereo not drawn) | -21.6%
45 | COC(=O)[C@H](CCSC)NS(=O)(=O)c1ccccc1Br | 13.8%
46 | COc1ccc2cc3c(nc2c1)OCC3 | 14.3%

Row | Compound | hERG current change (%, negative = inhibition) at 10uM
47 | CCN1CCN(Cc2ccc(NC(=O)c3cc(NC(=O)c4ccno4)cc(OC)c3)cc2C(F)(F)F)CC1 | 5.43%
48 | COc1cc(CN(C)C)cc(C=O)c1O | 19.4%
49 | CCOc1ncccc1C(=O)N1CCN(Cc2ccc3c(c2)OCO3)CC1 | -11.7%
50 | O=C(c1ccc(-n2ccnc2)cc1)N1CCCC(CO)(Cc2cccc(Cl)c2)C1 (stereo not drawn) | -60.4%
51 | CCn1cc(/C=N\NC(=O)c2csc3ccccc23)c(C)n1 | 13.2%
52 | COc1ccccc1NS(=O)(=O)c1ccc2oc(SCc3ccc(F)cc3)nc2c1 | -14.9%
53 | Cc1ccc(C)c(N(CC(=O)NCC2CCCO2)C(=O)CCC(=O)Nc2nccs2)c1 (stereo not drawn) | -0.0198%
54 | COC(=O)Cn1c(=O)sc2ccccc21 | -6.65%
55 | CCOc1ccc(CCNC(=O)c2cc(C)nn2-c2ccccc2)cc1 | -7.87%
56 | O=C(OCC(=O)c1ccc(S(=O)(=O)N2CCCC2)cc1)C1=COCCO1 | 7.22%
57 | CCn1c(=S)[nH]c2ccccc21 | 10.9%
58 | CS(=O)(=O)N(CC(=O)Nc1ccccc1C(=O)NCc1ccccc1)c1ccc2c(c1)OCCO2 | -30.3%
59 | Cc1ccc(C(=O)N/C(=C/c2ccc(Cl)cc2)C(=O)N2CCOCC2)cc1 | -32.6%
60 | CC(=O)c1cc(C(=O)c2ccccc2)sc1Nc1ccccc1 | 7.18%
61 | CC(Oc1ccccc1)C(=O)Nc1ccc(S(=O)(=O)Nc2nccs2)cc1 (stereo not drawn) | 16.9%
62 | C=CCn1c(Br)nc2c1c(=O)n(C)c(=O)n2C | -30.6%
63 | COc1ccc(C(NC(=O)CN2C(=O)NC3(CCc4ccccc43)C2=O)c2ccccc2)cc1 (stereo not drawn) | -12.9%
64 | C=CCN1C(=O)CSC1=Nc1ccc(O)cc1 | 5.79%
65 | CCc1cc(OCCOCCN(C)C)ccc1Cl.O=C(O)C(=O)O | -28.3%
66 | CCOc1ncccc1C(=O)OCC(=O)c1ccc(OC)c(OC)c1 | 3.64%
67 | O=C1/C(=C/c2ccc([N+](=O)[O-])cc2)C=C(c2ccccc2)N1c1ccc(O)cc1 | 11.2%
68 | COc1ccc(-c2nc(CS(=O)CC(=O)NCc3ccco3)c(C)o2)cc1OC (stereo not drawn) | -13.9%
69 | Cc1c(C)c(C)c(S(=O)(=O)N2CCSCC2)c(C)c1C | 10.8%

Row | Compound | hERG current change (%, negative = inhibition) at 10uM
70 | Cc1cn2c(=O)c(C(=O)N3CCN(c4ccccc4Cl)CC3)cnc2s1 | -62.8%
71 | CC(C)CC12CN3CCN(CC(C3)C1O)C2 (stereo not drawn) | -1.15%
72 | COc1ccc(NC(=O)COC(=O)c2ccc(N3CCCC3=O)cc2)cc1 | 20.1%
73 | Cc1cccc(NC(=O)c2ccc(C(=O)c3ccccc3)cc2)n1 | -18.2%
74 | Cc1ccc(NC(=O)CC(C(=O)O)c2ccccc2)cc1 (stereo not drawn) | 8.15%
75 | CN(C)c1oc(-c2ccccc2[N+](=O)[O-])nc1C#N | 22%
76 | O=c1c2ccccc2ncn1-c1ccc(Br)cc1[N+](=O)[O-] | -61.4%
77 | CN(CC(=O)Nc1ccc(Br)cc1)Cc1ccccc1 | 0.267%
78 | CC1CCC(NC(=O)c2ccc3c(c2)S(=O)(=O)c2ccccc2C3=O)CC1 (stereo not drawn) | -17.4%
79 | CC(C)C(=O)NC(=S)Nc1ccc(S(=O)(=O)NC2CCCCC2)cc1 | 5.83%
80 | CCn1c(N)c(C(=O)NC2CCCCC2)sc1=S | -5.55%
81 | O=C(Nc1ccccc1)c1sc(N2CCOCC2)nc1-c1ccccc1 | 1.24%
82 | CN(c1ccccc1)S(=O)(=O)c1ccc(NC(=S)NC(=O)c2ccccc2)cc1 | -1.27%
83 | Cc1nn(-c2ccc(F)cc2)c(C)c1CN1CCN(Cc2ccccc2)C(CCO)C1 (stereo not drawn) | -44.2%
84 | NCCNc1cc(N2CCCC2)ccc1[N+](=O)[O-] | 4.66%
85 | CNC(=O)c1cc(C(=O)c2ccc(F)cc2Cl)c[nH]1 | 14.5%
86 | Cc1nc2ccccn2c1-c1ccnc(SCc2ccc(Cl)cc2)n1 | 15.8%
87 | C(=N\N1CCOCC1)/c1ccsc1.O=P(O)(O)O | 18.8%
88 | C(=N\c1nccs1)/c1c[nH]c2ccccc12 | 13.4%
89 | Cc1nn(-c2ccccc2)c(CC(C)(C)C(=O)O)c1C(=O)O | 0.758%
90 | Brc1ccc2nc(-c3cccs3)c(NCC3CCCO3)n2c1 (stereo not drawn) | -52.6%
